{
  "source": "PubChem BioAssay AID1460",
  "about": "(National Center for Advancing Translational Sciences (NCATS), 2008)",
  "note": "The campaign covered roughly 270,000 compounds. About 5,800 (2.1%) were called active. The shares of active, inactive and inconclusive entries below differ from those in the screen. Calls come from the whole dose curve; as a rule, active = well fitted inhibition curve with a large enough effect; inconclusive = small, poorly fitted or top-dose-only effect; inactive = flat fitted curve, though single readings scatter. A potency beside an inconclusive call is a rough fit, not a confirmed value. % is set by controls: 0 for no effect and ±100 for the full control effect; potency is the fitted concentration of half-maximal effect; tags give direction and shape of the fitted curve.",
  "data": [
    {"molecular_target": "Microtubule-associated protein tau (Homo sapiens) (UniProt P10636)", "sequence (P10636 whole entry, looked up)": "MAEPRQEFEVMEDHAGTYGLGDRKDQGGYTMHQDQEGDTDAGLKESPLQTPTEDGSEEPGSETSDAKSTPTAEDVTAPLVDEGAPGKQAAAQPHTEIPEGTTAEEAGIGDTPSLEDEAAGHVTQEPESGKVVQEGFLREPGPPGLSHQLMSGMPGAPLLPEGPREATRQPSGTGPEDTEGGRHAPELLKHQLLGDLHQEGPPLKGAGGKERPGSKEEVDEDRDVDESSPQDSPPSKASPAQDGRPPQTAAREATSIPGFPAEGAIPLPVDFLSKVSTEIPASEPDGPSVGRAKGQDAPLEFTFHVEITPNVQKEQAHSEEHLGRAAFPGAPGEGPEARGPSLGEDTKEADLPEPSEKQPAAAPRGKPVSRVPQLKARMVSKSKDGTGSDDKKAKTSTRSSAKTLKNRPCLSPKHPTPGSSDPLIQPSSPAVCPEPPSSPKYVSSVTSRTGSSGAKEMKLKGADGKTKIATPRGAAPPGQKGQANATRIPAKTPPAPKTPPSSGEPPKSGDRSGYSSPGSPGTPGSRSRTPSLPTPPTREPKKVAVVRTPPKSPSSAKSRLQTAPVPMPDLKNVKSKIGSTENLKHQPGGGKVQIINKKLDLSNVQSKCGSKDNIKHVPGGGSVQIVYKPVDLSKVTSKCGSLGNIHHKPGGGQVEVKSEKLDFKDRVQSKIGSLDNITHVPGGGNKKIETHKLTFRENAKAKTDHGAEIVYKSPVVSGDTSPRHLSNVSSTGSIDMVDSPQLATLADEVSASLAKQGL", "test": "qHTS for Inhibitors of Tau Fibril Formation, Thioflavin T Binding; note: nearly all actives have a fitted effect of over 55% in size", "conditions": "recombinant tau K18 P301L, heparin-induced fibrillization, ThT fluorescence; series mostly up to 57.4 µM", "method_in_brief": "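Fibril formation assay: tau K18 P301L at 15 uM with trace Alexa 594 label, heparin inducer 20 uM, pH 7 sodium acetate buffer, 37 C for 6 hr; endpoint ThT signal.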", "values": [
      {"smiles": "O=C(CCN1CCOCC1)c1ccccc1", "Potency": "inconclusive: 20 µM [inhibitor, partial curve]"},
      {"smiles": "CCOC(=O)c1cccc(NC(=O)/C=C/c2ccc([N+](=O)[O-])cc2)c1", "Potency": "inconclusive: 2.24 µM [inhibitor, full curve]"},
      {"smiles": "COc1ccccc1OCC(=O)Sc1ccc(C)cc1", "Potency": "inconclusive: 22.4 µM [inhibitor, partial curve]"},
      {"smiles": "O=C1NCCN1C(=O)c1ccco1", "Potency": "inconclusive: 35.5 µM [inhibitor, partial curve]"},
      {"smiles": "COc1ccc(Br)cc1CC1C(=O)Nc2ccccc21", "note": "(stereo not given)", "Potency": "inconclusive: 15.8 µM [inhibitor, partial curve, poor fit]"},
      {"smiles": "CC1CC1C(=O)Nc1nc(-c2cccs2)c(-c2cccs2)s1", "note": "(stereo not given)", "Potency": "inconclusive: 22.4 µM [inhibitor, single point]"},
      {"smiles": "C=CCn1c(-c2ccccc2)nc(=S)c2c1CCCC2", "Potency": "inactive"},
      {"smiles": "CN1CCN(C(=O)C2CCC(CNS(=O)(=O)c3cccc4cccnc34)CC2)CC1", "note": "(stereo not given)", "Potency": "inactive"},
      {"smiles": "Cc1ccc(-n2ncc(C(=O)N3CCN(c4cccc(C)c4C)CC3)c2C2CCNCC2)c(C)c1", "Potency": "inactive"},
      {"smiles": "CC1Cc2ccccc2N1S(=O)(=O)c1cccc(C(=O)OCC(=O)NCc2ccco2)c1", "note": "(stereo not given)", "Potency": "inconclusive: 20 µM [inhibitor, single point]"},
      {"smiles": "CC(C)c1nc(SCC(=O)Nc2nc3c(s2)CCCC3)c2ccccc2n1", "Potency": "inconclusive: 14.1 µM [inhibitor, partial curve]"},
      {"smiles": "CCCOc1ccc(NC(=O)C2CC(=O)N3CCCN=C3S2)cc1", "note": "(stereo not given)", "Potency": "inactive"},
      {"smiles": "CC(=O)N[C@@H](CSC(=O)[C@]1([C@@H](O)C(C)C)NC(=O)[C@H](C)[C@@H]1O)C(=O)O", "activity, negative = inhibition": "inactive: -16% [at 11.5 µM]"},
      {"smiles": "O=C(CCCCl)NC1=NN(c2ccccc2)C(=O)C1", "Potency": "inconclusive: 17.8 µM [inhibitor, partial curve]"},
      {"smiles": "Cc1sc2nc(CSc3nc4ccccc4s3)[nH]c(=O)c2c1C", "Potency": "inconclusive: 39.8 µM [inhibitor, single point]"},
      {"smiles": "CCOC(=O)NC1(Nc2cccc(Cl)c2)Oc2ccccc2O1", "Potency": "inconclusive: 20 µM [inhibitor, single point]"},
      {"smiles": "O=C(Cn1ncc2c3ccccc3n(Cc3cccc(Cl)c3)c2c1=O)N1CCCCC1", "Potency": "inconclusive: 20 µM [inhibitor, partial curve, poor fit]"},
      {"smiles": "O=C(Nc1ccc(S(=O)(=O)N2CCCC2)cc1)N1c2ccccc2Sc2ccccc21", "Potency": "inconclusive: 14.1 µM [inhibitor, partial curve]"},
      {"smiles": "O=C(N/N=C/c1ccc(N2CCOCC2)s1)c1ccc(NS(=O)(=O)c2cccs2)cc1", "Potency": "inconclusive: 7.94 µM [inhibitor, partial curve]"},
      {"smiles": "Cc1cc(C)c2nc(Cl)c(Cl)nc2c1", "Potency": "inactive"},
      {"smiles": "O=C(COC(=O)c1cnc(Cl)c(Cl)c1)Nc1ccc(S(=O)(=O)N2CCCC2)cc1", "Potency": "inactive"},
      {"smiles": "O=C(N/N=C\\c1cc([N+](=O)[O-])ccc1N1CCCC1)c1ccccn1", "Potency": "inconclusive: 28.2 µM [inhibitor, partial curve]"},
      {"smiles": "CCCCc1nn2c(C)c(-c3ccc(OCC)cc3)nc2s1", "Potency": "inconclusive: 8.91 µM [inhibitor, partial curve]"},
      {"smiles": "Cc1ccc(-n2c(=O)[nH]c3sc4c(c3c2=O)CCNC4)cc1C", "Potency": "inactive"},
      {"smiles": "COc1ccc(C2=NN(c3nc(-c4ccccc4)c(CC(=O)O)s3)C(c3ccco3)C2)cc1", "note": "(stereo not given)", "Potency": "inconclusive: 12.6 µM [inhibitor, partial curve]"},
      {"smiles": "CCOC(=O)C1CCN(C(=O)Cn2nc(CC)n3c(cc4occc43)c2=O)CC1", "Potency": "inactive"},
      {"smiles": "COc1ccc(C(=O)N2CCC(C(=O)Nc3ccccc3OC)CC2)cc1", "Potency": "inactive"},
      {"smiles": "Cc1ccc(S(=O)(=O)Cc2ccc(C(=O)NCc3cccs3)o2)cc1", "Potency": "inactive"},
      {"smiles": "COC(=O)C1=C(C(=O)OC)SC2(S1)C(C(=O)OC)=C(C(=O)OC)SC1=C2c2cc(C)ccc2NC1(C)C", "Potency": "active: 12.6 µM"},
      {"smiles": "COc1ccc(-c2noc(C3CCCN(C(=O)Nc4ccccc4F)C3)n2)cc1", "note": "(stereo not given)", "Potency": "inconclusive: 17.8 µM [inhibitor, single point]"},
      {"smiles": "Cc1c(/C=N/NC(=O)c2cc(=O)[nH]c(=O)[nH]2)c2ccccn2c1C(=O)c1ccccc1", "Potency": "inconclusive: 15.8 µM [inhibitor, partial curve]"},
      {"smiles": "Cc1ccc(NC(=O)CN2CCN(C3CCCCC3)C(=O)C2=O)cc1C", "Potency": "inactive"},
      {"smiles": "Cc1ccc(S(=O)(=O)N(C)c2ccc(C(=O)N3CCN(Cc4ccc5c(c4)OCO5)CC3)cc2)cc1", "Potency": "inconclusive: 35.5 µM [inhibitor, single point]"},
      {"smiles": "CCCN1C(C(=O)c2ccccc2)=C(OC(=O)C(C)(C)C)c2ccccc2S1(=O)=O", "Potency": "inactive"},
      {"smiles": "COc1cccc(-n2c(=S)sc3c(=O)n(-c4ccccc4OC)c(=S)[nH]c32)c1", "Potency": "inconclusive: 35.5 µM [inhibitor, single point]"},
      {"smiles": "O=C(Nc1ccc(-c2ccc([N+](=O)[O-])cc2)cc1)c1ccccc1F", "Potency": "inconclusive: 1.58 µM [inhibitor, full curve]"},
      {"smiles": "O=C(CSc1nnc(SCc2ccccc2)s1)N/N=C/C=C\\c1ccco1", "Potency": "inconclusive: 31.6 µM [inhibitor, single point]"},
      {"smiles": "COc1ccc(NC(=O)c2ccc3c(=O)n4nc(Nc5ccccc5C)sc4nc3c2)cc1", "Potency": "inconclusive: 0.316 µM [inhibitor, full curve]"},
      {"smiles": "CCOc1cc(/C=N/NC(=O)c2cc(C3CC3)[nH]n2)ccc1O", "Potency": "inconclusive: 28.2 µM [inhibitor, partial curve]"},
      {"smiles": "O=C(COC(=O)C1CCCCC1C(=O)N1CCc2ccccc21)NCc1ccco1", "note": "(stereo not given)", "Potency": "inconclusive: 25.1 µM [inhibitor, single point]"},
      {"smiles": "CCc1ccccc1N1CC(c2nc3ccccc3n2CCC2CCCCC2)CC1=O", "note": "(stereo not given)", "Potency": "inconclusive: 25.1 µM [inhibitor, partial curve]"},
      {"smiles": "Cc1nnc(N2CCC(C(=O)NCc3cccc(Cl)c3)CC2)c2nn(-c3ccccc3)c(C)c12", "Potency": "inconclusive: 39.8 µM [inhibitor, single point]"},
      {"smiles": "Cc1cccc(-n2cc(CN3CCCN(C=O)CC3)c(-c3cccc(F)c3)n2)c1", "Potency": "inactive"},
      {"smiles": "Cn1cc(Br)c(C(=O)Nc2sc3c(c2C(N)=O)CCC3)n1", "Potency": "inconclusive: 17.8 µM [inhibitor, partial curve]"},
      {"smiles": "Cc1oc(-c2ccc(Cl)cc2)nc1CN1CCCC(C(=O)NCc2ccc(Cl)cc2)C1", "note": "(stereo not given)", "Potency": "inconclusive: 22.4 µM [inhibitor, single point]"},
      {"smiles": "Cc1cccc(NC(=S)N/N=C(\\c2ccccc2)C(C)C)c1", "Potency": "inconclusive: 31.6 µM [inhibitor, single point]"},
      {"smiles": "COc1ccccc1-c1cc2nc(C)c(CCC(=O)NC(C)CCc3ccco3)c(C)n2n1", "note": "(stereo not given)", "Potency": "inconclusive: 17.8 µM [inhibitor, partial curve]"},
      {"smiles": "CCOC(=O)c1cnc2c(C)cc(C)cc2c1Nc1ccc(N2CCOCC2)cc1", "Potency": "active: 11.2 µM"},
      {"smiles": "CCNc1oc(COc2ccccc2F)nc1C#N", "Potency": "inactive"},
      {"smiles": "COc1ccc(C(=O)Nc2ccc3c(c2)N(C)C(=O)c2ccccc2S3)cc1OC", "Potency": "inactive"},
      {"smiles": "COc1ccc(C(=O)N2CCN(Cc3cc(OC)c(O)c(OC)c3)CC2)cc1OC", "Potency": "inconclusive: 14.1 µM [inhibitor, partial curve]"},
      {"smiles": "COC(=O)c1cccc(NC(=O)c2ccc(OC)c(Cl)c2)c1", "Potency": "inconclusive: 10 µM [inhibitor, partial curve]"},
      {"smiles": "Cc1ccc(-n2nc(C)c(C(=O)NCCCN3CCN(c4ccccc4F)CC3)c2-n2cccc2)cc1", "Potency": "inactive"},
      {"smiles": "Cc1cc(C)c(C#N)c(SCC(=O)c2cccs2)n1", "Potency": "inconclusive: 2 µM [inhibitor, partial curve]"},
      {"smiles": "COc1cccc(NC(=O)CSc2nnc(NC(=O)NC3CCCCC3)s2)c1", "Potency": "inconclusive: 44.7 µM [activator, single point]"},
      {"smiles": "Cc1ccc(NC(=O)C2=C(O)CCn3c2nc2ccccc23)cc1", "Potency": "inactive"},
      {"smiles": "COc1cc(OC)c(NC(=O)C(C)n2nc(-c3ccc(C)c(C)c3)ccc2=O)cc1Cl", "note": "(stereo not given)", "Potency": "inconclusive: 20 µM [inhibitor, single point]"},
      {"smiles": "O=C(Nc1ccc(O)c(-c2nc3ccccc3s2)c1)c1cc(=O)c2ccccc2o1", "Potency": "inconclusive: 2.82 µM [inhibitor, full curve]"},
      {"smiles": "CCOC(=O)c1ccc(N2C(=O)C3CC=C(C)CC3C2=O)cc1", "note": "(stereo not given)", "Potency": "inactive"},
      {"smiles": "Cc1cc(C)n2nc(Nc3ccccc3)cc2n1", "Potency": "inconclusive: 17.8 µM [inhibitor, partial curve]"},
      {"smiles": "COc1ccccc1NS(=O)(=O)c1cc(NC(=S)NCCN2CCOCC2)ccc1N1CCOCC1", "Potency": "inactive"},
      {"smiles": "Cc1ccc(N(C)C(=O)c2noc3c2CCCCC3)cc1C", "Potency": "inactive"},
      {"smiles": "CCN(CC)C1=N/C(=C\\c2ccc(OC)cc2)C(=O)N1c1ccccc1", "Potency": "inconclusive: 25.1 µM [inhibitor, single point]"},
      {"smiles": "Cc1cccc(N2CCN(C(=O)c3c4c(nc5ccccc35)C(=O)N(C3CCCCC3)C4)CC2)c1C", "Potency": "inconclusive: 44.7 µM [inhibitor, single point]"},
      {"smiles": "CN(C)c1ccc(-c2nc3ccccn3c2Nc2ccc3c(c2)OCCO3)cc1", "Potency": "inconclusive: 4.47 µM [inhibitor, full curve]"},
      {"smiles": "O=C1C2C3C=CC(CC3)C2C(=O)N1/N=C/c1c[nH]c2ccccc12", "note": "(stereo not given)", "Potency": "inactive"},
      {"smiles": "Cc1ccc(C(C)C)c(OCC(=O)Nc2ccc(-c3nc4ncccc4o3)cc2C)c1", "Potency": "inactive"},
      {"smiles": "CC(=O)Nc1nc(C)c(-c2csc(Nc3cccc([N+](=O)[O-])c3)n2)s1", "Potency": "inconclusive: 2.24 µM [inhibitor, full curve]"},
      {"smiles": "COC(=O)c1c(NC(=O)CCCOc2ccccc2C)sc2c1CCC2", "Potency": "inactive"},
      {"smiles": "CC(Sc1ncnc2ccccc12)C(=O)Nc1ccc2c(c1)OCCO2", "note": "(stereo not given)", "Potency": "inconclusive: 15.8 µM [inhibitor, single point]"}
    ]}
  ]
}
